Assay results taken from a collection of fitness landscapes (doi:10.1126/science.1257360).
Some of the results follow.

B1: PhoQ; a variant is named by its letters at X, in order, P23837 (parent)
chain: MKKLLRLFFPLSLRVRFLLATAAVVLVLSLAYGMVALIGYSVSFDKTTFRLLRGESNLFYTLAKWENNKLHVELPENIDKQSPTMTLIYDENGQLLWAQRDVPWLMKMIQPDWLKSNGFHEIEADVNDTSLLLSGDHSIQQQLQEVREDDDDAEMTHSVAVNVYPATSRMPKLTIVVVDTIPVELKSSYMVWSWFIYVLSANLLLVIPLLWVAAWWSLRPIEALAKEVRELEEHNRELLNPATTRELTSLVRNLNRLLKSERERYDKYRTTLTDLTHSLKTPLXXLQXXLRSLRSEKMSVSDAEPVMLEQISRISQQIGYYLHRASMRGGTLLSRELHPVAPLLDNLTSALNKVYQRKGVNISLDISPEISFVGEQNDFVEVMGNVLDNACKYCLEFVEISARQTDEHLYIVVEDDGPGIPLSKREVIFDRGQRVDTLRPGQGVGLAVAREITEQYEGKIVAGESMLGGARMEVIFGRQHSAPKDE

Variants of: B1
Test: enrichment ratio after two sorts for PhoP signalling (ratio (wild type AVST 3.29)); higher = more functional
Conditions: with PhoP (E. coli)

Variant	enrichment ratio
YKDM	≤ 0.25
HVFD	≤ 0.25
LYGI	≤ 0.25
WPLH	≤ 0.25
KHRQ	≤ 0.25
ESAY	≤ 0.25
FWRE	≤ 0.25
HIIL	≤ 0.25
KHDR	≤ 0.25
YATG	≤ 0.25
TVNV	2.21
DGFL	≤ 0.25
PFIH	≤ 0.25
YTIN	≤ 0.25
EKHI	≤ 0.25
NVVW	≤ 0.25
LVPG	≤ 0.25
MMWA	≤ 0.25
TPVR	≤ 0.25
RFIV	≤ 0.25
GVWR	≤ 0.25
NLWR	≤ 0.25
SRKT	≤ 0.25
TVCN	26.1
NMFG	≤ 0.25
RWIL	≤ 0.25

Variant	enrichment ratio
HAST	≤ 0.25
PMME	≤ 0.25
QRHN	≤ 0.25
AYAN	≤ 0.25
TYAM	1.1
WCFQ	≤ 0.25
LDKT	≤ 0.25
MGVD	≤ 0.25
RYYP	≤ 0.25
ILRD	≤ 0.25
HKQY	≤ 0.25
LITM	≤ 0.25
QPKS	≤ 0.25
DCIF	≤ 0.25
QLRN	≤ 0.25
YSMF	0.959
RTWN	≤ 0.25
TLHD	≤ 0.25
MFCH	≤ 0.25
HLTP	≤ 0.25
TERC	≤ 0.25
TGAI	12.3
GGLV	13.7
ITFR	≤ 0.25
GNPM	≤ 0.25
EVAT	≤ 0.25

Variant	enrichment ratio
MDGC	≤ 0.25
HRET	≤ 0.25
KNQS	≤ 0.25
MNPE	≤ 0.25
VVYM	≤ 0.25
AELC	9.07
LPTD	≤ 0.25
KFTG	≤ 0.25
VGKA	≤ 0.25
HPWT	≤ 0.25
FTIM	7.77
TNWE	≤ 0.25
ALWV	≤ 0.25
MNHM	≤ 0.25
FHFQ	≤ 0.25
KHST	≤ 0.25
INRK	≤ 0.25
RACY	≤ 0.25
WRVP	≤ 0.25
IPCE	≤ 0.25
VLSG	≤ 0.25
ICTG	≤ 0.25
DHNC	≤ 0.25
IENW	≤ 0.25
ANGV	10.9
DDRP	≤ 0.25

Variant	enrichment ratio
NKPW	≤ 0.25
EPLV	≤ 0.25
GYER	≤ 0.25
HLVN	≤ 0.25
WVLL	≤ 0.25
SDEK	≤ 0.25
VMQA	≤ 0.25
MLER	≤ 0.25
HMFW	≤ 0.25
KDWF	≤ 0.25
FMPT	≤ 0.25
NYLV	≤ 0.25
PTET	≤ 0.25
QGPN	≤ 0.25
WWPH	≤ 0.25
DYWL	≤ 0.25
VMQF	≤ 0.25
PHNM	≤ 0.25
TAQY	≤ 0.25
HQAA	≤ 0.25
PHNR	≤ 0.25
KKPH	≤ 0.25
NDVQ	≤ 0.25
RYSF	≤ 0.25
LTDV	≤ 0.25
GDRC	≤ 0.25

Variant	enrichment ratio
QDVY	≤ 0.25
KCLP	1.04
TPMY	≤ 0.25
RDQK	≤ 0.25
YETL	≤ 0.25
YVTA	0.38
RQLL	≤ 0.25
SHIV	≤ 0.25
RALN	≤ 0.25
WCHV	≤ 0.25
MTHR	≤ 0.25
PIQV	≤ 0.25
PGVT	≤ 0.25
QQHY	21.2
DAMN	≤ 0.25
QKQA	≤ 0.25
DLYW	≤ 0.25
PCKA	≤ 0.25
GYQQ	≤ 0.25
WFRA	≤ 0.25
PAGQ	≤ 0.25
VDPN	≤ 0.25
ILTR	≤ 0.25
QGGN	14.7
WHRW	≤ 0.25
IHRA	≤ 0.25

Variant	enrichment ratio
QQNN	≤ 0.25
YMTN	≤ 0.25
VKHA	≤ 0.25
YFND	≤ 0.25
NEPM	≤ 0.25
KLLY	≤ 0.25
ARQH	≤ 0.25
MAHF	9.56
RCQK	≤ 0.25
DIDN	≤ 0.25
FVFY	≤ 0.25
SKEC	≤ 0.25
EMCS	≤ 0.25
RKRK	≤ 0.25
DWIT	≤ 0.25
MPPE	≤ 0.25
ECGH	≤ 0.25
DYGM	≤ 0.25
SRFN	≤ 0.25
RFNC	≤ 0.25
PCRN	≤ 0.25
MIWK	8.54
MACM	≤ 0.25
